Among all 45,000 compounds or so, about 200 (0.44%) were called active. Not shown: some 7% with an inconclusive outcome. Calls follow the shape of the dose curve; as a rule, active = well fitted activation curve with a large enough effect; inconclusive = small, poorly fitted or top-dose-only effect; inactive = no such curve, though single readings can be large or run the other way. The list shows a part of the results.
Assay: qHTS of TDP-43 Inhibitors: NCGC Sytravon Library Screen; also: 0% is about no effect; nearly all actives have a fitted effect of over 55% in size
Conditions: yeast TDP-43 toxicity rescue, BacTiter-Glo growth, 24 h; series mostly up to 46.1 µM; growth rescue (activation): at the top concentration
Method in brief: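 TDP-43-expressing yeast, pregrown in raffinose, seeded at OD600 0.02 in galactose medium with compound for 24 hr at 30 deg C. Growth read by BacTiter-Glo luminescence, so rescue of toxicity appears as activation.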

Row | Structure (SMILES) | growth rescue (activation)
1 | CC1(C)Cc2[nH]c(=O)c(C#N)cc2CS1 | inactive: 12.8%
2 | CCn1c(SCC(=O)NC2CCCCC2)nnc1C(C)NC(=O)c1ccccc1F (stereo not drawn) | inactive: -19.4%
3 | COc1cccc(/C=C/C(=O)NNC(=O)c2ccccc2)c1OC | inactive: 12.5%
4 | O=C(/C=C1\NC2(CCCC2)Cc2ccccc21)N1CCOCC1 | inactive: 3.4%
5 | COc1cc(/C=C2\SC(=O)NC2=O)ccc1OCC(=O)N1CCOCC1 | inactive: 20%
6 | COc1ccc(C)cc1NC(=O)C1CCN(S(=O)(=O)c2cccc3nonc23)CC1 | inactive: -1.22%
7 | NC(=O)c1cccc(-c2csc(C(O)c3ccccc3)n2)c1 (stereo not drawn) | inactive: 13.1%
8 | CCOc1ccc(NC(=S)N2CCC(NC(=O)c3ccccc3C)CC2)cc1 | inactive: 14%
9 | CCOC(=O)Cn1c(-c2nonc2NC(=O)c2ccccc2F)nc2ccccc21 | inactive: -7.21%
10 | Cc1nn(-c2ccccc2)c(C)c1CNC(=O)c1ccc(S(=O)(=O)NCc2ccco2)cc1 | inactive: 0.649%
11 | CC[n+]1c(/C=C2/C=C(C)CC(C)(C)C2)sc2ccc(OC)cc21 | inactive: 14.8%
12 | C/C(=N\N=C(N)N)c1cccc([N+](=O)[O-])c1 | inactive: 0.778%
13 | Cc1ccc(NC(=O)CCNC(=O)c2ccccc2Cl)cc1S(=O)(=O)N(C)C | inactive: 2.76%
14 | CCN(CC)c1ccc(/C=N/NC(=O)c2cccc(N3CCCC3=O)c2)cc1 | inactive: 16.1%
15 | CCN(CC)C(=O)c1sc(NC(=O)c2cccs2)c(C#N)c1C | inactive: -0.754%
16 | O=C(NCc1ccco1)c1cccn2c(=O)c3c4c(sc3nc12)CCCC4 | inactive: -8.59%
17 | O=C(COC(=O)c1ccc2ccccc2n1)Nc1cccc(S(=O)(=O)NC2=NCCCCC2)c1 | inactive: -7.73%
18 | CCCCOc1ccc(S(=O)(=O)NC(=O)C2(C)CCN2C(=O)c2cccc(F)c2)cc1 (stereo not drawn) | inactive: 18.9%
19 | C=CCn1c(SCC(=O)Nc2c(C)n(C)n(-c3ccccc3)c2=O)nnc1-c1cccnc1 | inactive: 2.6%
20 | COc1cccc(-c2cc3nc(NCc4ccc(C)cc4C)n(C)c(=O)c3s2)c1 | inactive: 7.76%
21 | O=C(CSc1n[nH]c(-c2cccnc2)n1)Nc1cccc(Cl)c1 | inactive: 16.2%
22 | COc1ccc(OC)c(NC(=O)C2CCCN2C(=O)NC2CCCCC2)c1 (stereo not drawn) | inactive: 5%
23 | FC(F)(F)c1cccc(Cc2noc(CN3CCCC(CN4CCCC4)C3)n2)c1 (stereo not drawn) | inactive: -2.73%
24 | CC1CN(S(=O)(=O)c2ccc(C(=O)NN3CCN(C)CC3)cc2)CC(C)O1 (stereo not drawn) | inactive: -12.2%
25 | Cc1cccc(C(=O)Nc2ccc(N3CCN(S(C)(=O)=O)CC3)cc2)c1 | inactive: 6.4%
26 | CC(=O)N=C1SC2CS(=O)(=O)CC2N1Cc1ccc(C)cc1 (stereo not drawn) | inactive: -3.98%
27 | COc1ccc(NC(=O)CSc2ccc(NC(C)=O)cc2)cc1S(=O)(=O)N1CCOCC1 | inactive: -8.96%

Row | Structure (SMILES) | growth rescue (activation)
28 | COc1ccc(NC(=S)Nc2ccccn2)cc1 | inactive: 16.1%
29 | Cc1nn(-c2cc(C(F)(F)F)ccc2Cl)c2nc(C(Cl)(Cl)Cl)[nH]c(=O)c12 | inactive: 6.13%
30 | CCN(CC)C(=O)Cn1c(=O)n(CCCCCC(=O)Nc2ccccc2)c(=O)c2sccc21 | inactive: 3.36%
31 | CC(C)(C)NC(=O)COC(=O)c1ccc(Cl)nc1 | inactive: 5.42%
32 | COc1ccc(Cl)cc1CC1(C)C(=O)Nc2ccc(-c3ccccc3OC)cc21 (stereo not drawn) | inactive: 1.48%
33 | CN(CCOC(=O)c1ccccc1)Cc1ccccc1 | inactive: 13.3%
34 | CCOC(=O)N1CCN(C(=O)c2cn(C)c3ccc(S(=O)(=O)N4CCC(C)CC4)cc3c2=O)CC1 | inactive: -1.45%
35 | COc1ccc(NC(=O)C2CCCN(S(=O)(=O)c3ccc(-n4cnnn4)cc3)C2)cc1 (stereo not drawn) | inactive: 10.7%
36 | COc1cc(NS(=O)(=O)c2ccc(NS(=O)(=O)c3ccccc3)cc2)nc(OC)n1 | inactive: -3.2%
37 | CCOC(=O)c1sc2nc(-c3ccccc3)ccc2c1N | inactive: 4.54%
38 | COC(=O)N(NC(=O)C(O)(c1ccccc1)c1ccccc1)c1ccc(C)cc1 | inactive: 13.1%
39 | CC1CC(C)(C)CC2(C1)NC(=O)N(CC(=O)N1CCN(S(=O)(=O)c3cccc(F)c3)CC1)C2=O (stereo not drawn) | inactive: -27.9%
40 | O=C(c1cccc(C(=O)N(c2ccccn2)C2CCCCC2)c1)N(c1ccccn1)C1CCCCC1 | inactive: -0.383%
41 | O=C(Nc1ccc(N2CCOCC2)cc1)c1ccc2ncsc2c1 | inactive: 31.2%
42 | Cc1cccc(C)c1NC(=O)CCS(=O)(=O)c1ccc2c(c1)n(C)c(=O)c(=O)n2C | inactive: -0.0214%
43 | Cc1cc(Cl)ccc1OC(C)C(=O)NN=C1CCCCCC1 (stereo not drawn) | inactive: -10.2%
44 | O=C(CS(=O)(=O)c1ccccc1)N1CCc2ccccc21 | inactive: 10.2%
45 | COc1cc2c(cc1NC(=O)c1ccc(C)c([N+](=O)[O-])c1)oc1ccccc12 | inactive: -32.7%
46 | O=C(NCCc1ccc(C(F)(F)F)cc1)C1COc2ccccc2O1 (stereo not drawn) | inactive: 22.1%
47 | CNC(=O)COc1ccc(S(=O)(=O)Nc2ccc(OC)cc2)cc1 | inactive: -26.1%
48 | CN(C(=O)C1CCCCN1S(=O)(=O)c1ccccc1)c1ccccc1 (stereo not drawn) | inactive: -5.45%
49 | COc1ccc(Cl)cc1NC(=S)N(Cc1ccccc1C)CC1CCC(C(=O)O)CC1 (stereo not drawn) | inactive: 16.2%
50 | COc1ccc(NC(=S)N2CCCN(Cc3cccc(Cl)c3)C2)cc1 | inactive: 6.03%
51 | COc1cc(C2C(C#N)=C(C)NC(C)=C2C#N)cc(OC)c1OC | inactive: 3.22%
52 | COc1ccc(C2C(C#N)=C(N)OC3=C2C(=O)CCC3)cc1Cn1nc(C)c([N+](=O)[O-])c1C (stereo not drawn) | inactive: 3.19%
53 | CNS(=O)(=O)c1cccc(C(=O)OCC(=O)Nc2cc(F)ccc2F)c1 | inactive: 5.59%

Reference: PubChem BioAssay AID1347073 (National Center for Advancing Translational Sciences (NCATS), 2019)
